Test results as given in the supplement of paper PMC10338343.
± gives the standard deviation. Whole data set: some 3,700 sequences, median “pre-steady-state target cleavage rate” near 0.02, cut for the highest 2% near 0.23. The list shows a part of the results, in another mix than the full data.

system: MILI (PIWIL2) piRISC loaded with Kctd7 piRNA (26 nt); experiment: pre-steady-state target cleavage rate (min^-1); MIWI and MILI are mouse PIWI proteins and EfPiwi is from a freshwater sponge; tags in brackets are library labels; higher = faster piRNA-guided slicing of the target; conditions: guide: Kctd7 piRNA 5'p-UGUUAAUCUCUCAGAGAAGGUGACAG; auxiliary factor: 500 nM mouse GTSF1
Outline: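 Cleave-'n-Seq: 1 nM active affinity-purified piRISC with one synthetic guide and 0.1 nM transcribed, DNA-blocked target RNA library were mixed, with or without 500 nM GTSF1 partner protein, in HEPES–potassium acetate buffer at 33 °C for 0–8 or 0–960 min. Uncleaved targets were sequenced and normalised to depth and to weakly complementary targets, three trials were pooled, and k3 was capped at 0.0001 min^-1. The pre-steady-state cleavage rate was fitted […].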

First: UAGUGACUCACCUUCUCUGAGAGAUAAACA
Second: UAGUGACAGUGGUUUCUCUGAGAGAUUAACA
The “pre-steady-state target cleavage rate” value of the first is higher: 0.141 ± 0.023 for the first, 0.0109 ± 0.0027 for the second.

Compared with UAGUGACUCAGCUUCUCUGUGAGAUUAACA, UAGUCUGUCACCUUCUCUGAGAGUAUUAACA is higher in “pre-steady-state target cleavage rate” value: 0.0297 ± 0.0038 for the first, 0.173 ± 0.013 for the second.

UAGUGACAGUGGUUCUAUGAGAGAUUAACA and UAGUGACAGUGCUUUCUGAGAGAUUAACA are within error of each other in “pre-steady-state target cleavage rate” value: 0.00489 ± 0.0027 for the first, 0.00706 ± 0.0028 for the second.

Going from UAGUGACACACGUUCUCUGAGAGAUAAACA to UAGUGACACACCUCCUCUGAGAGAUUAACA, the “pre-steady-state target cleavage rate” value rises from 0.0273 ± 0.0051 to 0.145 ± 0.0088.

Compared with UAGUGACAGUCGUUCUGUGAGAGAUUAACA, UAGUGACACAGCUUCUGUGAGAGAUUAACA is higher in “pre-steady-state target cleavage rate” value: 0.00579 ± 0.0023 for the first, 0.05 ± 0.011 for the second.

First: UAGUGCGUCACCUUCUCUGAGAGAUUAACA
Second: UAGUGACAGACCUUCUGAGAGAGAUUAAGA
The “pre-steady-state target cleavage rate” value of the first is higher: 0.199 ± 0.013 for the first, 0.00483 ± 0.0039 for the second.

Compared with UAGUGAGUCACCUUGAGUGAGAGAUUAACA, UAGUGACUCACCUUCUCUGAGCGAUUAACA is lower in “pre-steady-state target cleavage rate” value: 0.0638 ± 0.0084 for the first, 0.0117 ± 0.0056 for the second.

First: UAGUGACUCACCUUCUCUGAGAGAUUUACA
Second: UAGUCUGUCACGUUCUCUGAGAGUUUAACA
The “pre-steady-state target cleavage rate” value of the first is higher: 0.113 ± 0.017 for the first, 0.0505 ± 0.0053 for the second.

First: UAGUCUGUCUCCUUCUCUGAGAGAUUAUCA
Second: UAGUGAGUCACCUUCUCUGAGAGAUUAUACA
The “pre-steady-state target cleavage rate” value of the first is lower: 0.0975 ± 0.013 for the first, 0.18 ± 0.036 for the second.

First: UAGUGACAGUGGAAGUCUGAGAGAUUACCA
Second: UAGUGACAGACCUUCUCUGAGAGAUUAACU [g2:g21:cont:t1U]
The “pre-steady-state target cleavage rate” value of the first is lower: less than 0.0001 for the first, 0.0506 ± 0.009 for the second.

First: UAGUGAGUCACCUUGUCUGAGAGAUUUUGA
Second: UAGUCUGUCACCUUCUCUGAGAGAUUACACA
The “pre-steady-state target cleavage rate” value of the first is lower: 0.0161 ± 0.0098 for the first, 0.153 ± 0.022 for the second.

Going from UAGUGACACACCUUCUCAGAGAGUUUAACA to UAGUGACAGUGGAAGAGACAUAGAUUAACA, the “pre-steady-state target cleavage rate” value falls from 0.0969 ± 0.035 to less than 0.0001.

First: UAGUGACAGUGCUUCUCUAAGAGAUUAACA
Second: UAGUGUCAGACCUUCUCUGAGAGAUUAUGA
The “pre-steady-state target cleavage rate” value of the first is higher: 0.045 ± 0.0054 for the first, 0.00942 ± 0.0043 for the second.

UAGUGACACGACCUUCUCUGAGAGAUUAACA and UAGUGACACUCCUUCUCUGAGAGAUUAUCA are within error of each other in “pre-steady-state target cleavage rate” value: 0.11 ± 0.0086 for the first, 0.0861 ± 0.018 for the second.

Compared with UAGUGACUCACCUUCUCUGAGAGAUUGAACA, UAGUGAGACACCUUCUCUGAGAGAUAAACA is lower in “pre-steady-state target cleavage rate” value: 0.173 ± 0.029 for the first, 0.075 ± 0.017 for the second.

Compared with UAGUGACAGUCCUUCUUGAGAGAUUAACA, UAGUGUGUCAUCCUUCUCUGAGAGAUUAACA is higher in “pre-steady-state target cleavage rate” value: 0.0069 ± 0.004 for the first, 0.0711 ± 0.01 for the second.

Going from UAGUGUGUCACCUUCUCAGAGAGAUUUUGA to UAGUGAGUCACCUUCUCUGACAGAUUUACA, the “pre-steady-state target cleavage rate” value falls from 0.109 ± 0.037 to 0.00705 ± 0.0055.

Going from UAGUGACAGUCCUUCUCUGAGAGAUAAACA to UAGUCUGUCUGGUUCUCUGAGAGAUUAACA, the “pre-steady-state target cleavage rate” value rises from 0.00798 ± 0.0035 to 0.0616 ± 0.0055.

Compared with UAGUGUGUCACCAUCUCUGACAGAUUAACA, UAGUGUCUCACCUUCUCUGAGAGAUUAUGA is lower in “pre-steady-state target cleavage rate” value: 0.0479 ± 0.0079 for the first, 0.0163 ± 0.0063 for the second.

First: UAGUCUGACACCUUCUCUGUGAGAUUAACA
Second: UAGUGAGUCCCCUUCUCUGAGAGAUUAACA
The “pre-steady-state target cleavage rate” value of the first is lower: 0.0387 ± 0.0027 for the first, 0.214 ± 0.021 for the second.

Going from UAGUCUGUCACCUUCUCACUGAGAUUAACA to UAGUCUGACACCUUCUCUGAGAGAUAAACA, the “pre-steady-state target cleavage rate” value rises from 0.0186 ± 0.0032 to 0.0688 ± 0.013.

First: UAGUGACAGUGCUUCUGUGAGACAUUAACA
Second: UAGUGACACACCUUCUCUGACAGAUUAACA
The “pre-steady-state target cleavage rate” value of the first is lower: 0.0047 ± 0.0025 for the first, 0.0396 ± 0.0072 for the second.

First: UAGUGACUCACCUUCACUGAGAGAUAAACA
Second: UAGUCUGUCACCUUCUCUGAAGAGAUUAACA
The “pre-steady-state target cleavage rate” value of the first is higher: 0.0572 ± 0.014 for the first, 0.0126 ± 0.004 for the second.

Going from UAGUGACUCUCCAUCUCUGAGAGAUUAACA to UAGUGACUCACCUUCUCUGAGAGAUUACACA, the “pre-steady-state target cleavage rate” value rises from 0.0616 ± 0.0058 to 0.125 ± 0.023.

Going from UAGUGACAGACCUUUCUCUGAGAGAUUAACA to UAGUGACACAGCUUCUCUGAGAGUUUAACA, the “pre-steady-state target cleavage rate” value falls from 0.061 ± 0.012 to 0.0292 ± 0.01.

Compared with UAGUGACAGACCUUACUCUGAGAGAUUAACA, UAGUGUGUCACCUUCUCUGAGAGACUUAACA is higher in “pre-steady-state target cleavage rate” value: 0.0391 ± 0.0052 for the first, 0.189 ± 0.025 for the second.

Compared with UAGUGACUCACUUUCUCUGAGAGAUUAACA, UAGUCUGUCUCCUUCUCUGAGAGAUAAACA is lower in “pre-steady-state target cleavage rate” value: 0.166 ± 0.0089 for the first, 0.07 ± 0.018 for the second.

Compared with UAGUGACAGACCUUCUGUGAGAGAUAAACA, UAGUGACACACCAUCUCUGAGACAUUAACA is lower in “pre-steady-state target cleavage rate” value: 0.0443 ± 0.016 for the first, 0.0225 ± 0.0045 for the second.

Going from UAGUGACAGUGCUUCUCUGAGAGAUAAAGA to UAGUGACAGACCUUCUGUGACAGAUUAACA, the “pre-steady-state target cleavage rate” value rises from less than 0.0001 to 0.0122 ± 0.0065.

Going from UAGUGUGUCACCUUCUCUGAGAGAUUAAUA to UAGUGACAGUGGAAGACUGAGAAGAUUAACA, the “pre-steady-state target cleavage rate” value falls from 0.236 ± 0.037 to less than 0.0001.

Compared with UAGUCUGUCUCCUUCUCAGAGAGAUUAACA, UAGUGACAGUGGAAGUCUGAGAGACUAACA is lower in “pre-steady-state target cleavage rate” value: 0.115 ± 0.0099 for the first, less than 0.0001 for the second.

Going from UAGUCUGACACCUACUCUGAGAGAUUAACA to UAGUGUGUCAGCUUCUCUGAGAGAUUAACA, the “pre-steady-state target cleavage rate” value rises from 0.12 ± 0.0058 to 0.18 ± 0.014.

First: UAGUGACUCACGUUGUCUGAGAGAUUAACA
Second: UAGUGACAGUGGAAGACUGAGGGAUUAACA
The “pre-steady-state target cleavage rate” value of the first is higher: 0.114 ± 0.0092 for the first, less than 0.0001 for the second.

Compared with UAGUGACACAGCCUUCUCUGAGAGAUUAACA, UAGUGACAGUGCUUCCUCUGAGAGAUUAACA is lower in “pre-steady-state target cleavage rate” value: 0.0834 ± 0.0087 for the first, 0.0401 ± 0.0044 for the second.

First: UAGUGAGUCUCCUUCUCUGAGUGAUUAACA
Second: UAGUGUGUCCACCUUCUCUGAGAGAUUAACA
The “pre-steady-state target cleavage rate” value of the first is lower: 0.00446 ± 0.0024 for the first, 0.152 ± 0.021 for the second.

First: UAGUGACACAGCUUCUCUGAGAGAUUUACA
Second: UAGUCUGUCACCUUAUCUGAGAGAUUAACA
The “pre-steady-state target cleavage rate” value of the first is lower: 0.0492 ± 0.01 for the first, 0.165 ± 0.013 for the second.
